# Hit rate of the full screen: of about 410,000 compounds, about 260 (0.063%) were called active. The inconclusive results got no clear call from the source; some entries with a clear call stand among them for comparison. Calls follow the shape of the dose curve; as a rule, active = well fitted activation curve with a large enough effect; inconclusive = small, poorly fitted or top-dose-only effect; inactive = no such curve, though single readings can be large or run the other way. Potencies of inconclusive entries are left out as doubtful fits.
# Experiment: qHTS for compounds that reverse cellular toxicity of Amyloid beta (A-beta) peptide in yeast: Primary Screen; also: nearly all actives have a fitted effect of over 55% in size
# Details: yeast expressing A-beta42, growth rescue, OD600, 48 h; growth rescue: at 46.1 µM (top of the series), 0% DMSO, 100% iron-clioquinol control
# Outline: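 Growth rescue measured by 600 nm absorbance after 48 h yeast culture at 30 C with compound. Values normalized between DMSO and an equimolar ferric chloride plus clioquinol control.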
# Potency is read from the fitted curve at half-maximal effect; tags tell the direction and shape of the fitted curve.
SMILES,growth rescue,Potency
COc1ccc(N2C(=O)C(CC(=O)Nc3ccc(F)cc3)N(Cc3ccc4c(c3)OCO4)C2=O)cc1 (stereo not given),inactive: -16.4%,
Nn1c(SCC(=O)NC2CCCc3ccccc32)nnc1-c1cccs1 (stereo not given),,"inconclusive [activator, partial curve, poor fit]"
COc1ccccc1N1C(=O)Cc2ccccc2C1=O,,"inconclusive [activator, partial curve, poor fit]"
Cc1ccc(C(=O)C2=C(O)C(=O)N(Cc3ccco3)C2c2ccc(N(C)C)cc2)o1 (stereo not given),,"inconclusive [activator, single point]"
Cc1nc(NC(=O)CCc2ccccc2)sc1C,inactive: 30%,
CC(=O)N(Cc1c(C)nn(-c2ccccc2)c1Cl)c1ccc(Cl)cc1,inactive: -18.8%,
CN(C/C=C/C#CC(C)(C)C)Cc1cccc2ccccc12,,"inconclusive [activator, full curve, poor fit]"
Cc1cc(N/N=C/c2ccc(F)cc2)nc(-n2nc(C)cc2C)n1,,active: 12.6 µM
COc1ccccc1NC(=S)N1CCN(c2nc(-c3ccccc3)cs2)CC1,,"inconclusive [activator, single point]"
COc1ccc(C2Nc3ccccc3-c3cc(C)nn32)cc1OC (stereo not given),inactive: -11.3%,
CC(C)c1ccc(C(C(C(=O)c2ccccc2)N2CCOCC2)N2CCOCC2)cc1 (stereo not given),,"inconclusive [activator, full curve]"
Cc1oc(-c2ccccc2Cl)nc1CSc1nc2ncccc2[nH]1,inactive: 2.88%,
CCOc1ccccc1NC(=S)NC(=O)C1CCCCC1,,active: 7.08 µM
COc1ccc(NC(=S)NC(=O)Cc2ccccc2)c(OC)c1,,"inconclusive [activator, partial curve]"
COc1cccc(CNC(=O)Cc2c(C(=O)O)c(C)cn2C)c1,inactive: -10.1%,
COc1ccc(-c2cc(C(F)(F)F)nc(S(=O)(=O)CCCC(=O)Nc3cccnc3Cl)n2)cc1OC,inactive: -22.1%,
C/C(=N\NC(=O)c1ccccc1OCc1ccc(F)cc1)c1ccccn1,,"inconclusive [activator, single point]"
CCOc1cc(/C=N/Nc2nc3ccccc3[nH]2)cc(Br)c1OCC(=O)N(C)C,inactive: 11.3%,
S=C(NCCc1ccccc1)N/N=C/c1cccs1,,"inconclusive [activator, partial curve, poor fit]"
O=C(Cc1ccc(F)cc1)Nc1nnc2n1CCS2,inactive: -6.58%,
CCCN1C(=S)c2ccccc2C1c1ccccc1 (stereo not given),,"inconclusive [activator, single point]"
CCOc1ccc(C(=O)c2oc3ccccc3c2NC(=O)Cc2coc3ccc(CC)cc23)cc1,,"inconclusive [activator, partial curve, poor fit]"
CCn1nnc2cc(C(=O)NCCc3ccccc3F)ccc21,,"inconclusive [activator, single point]"

SMILES,growth rescue,Potency
CC1OC(CC(=O)O)CC2=C1C(=O)c1c(O)cccc1C2=O (stereo not given),inconclusive: -48.2% [activator],
Cc1ccc(Cl)cc1NC(=O)COC(=O)C12CC3CC(CC(C3)C1)C2,,"inconclusive [activator, partial curve, poor fit]"
O=C(CNC(=S)N(Cc1ccccc1)Cc1ccccc1F)NCc1ccc(Cl)cc1,,"inconclusive [activator, partial curve]"
CCc1ccccc1NC(=S)NCC1CCN(c2ccc(OC)cc2)C1 (stereo not given),,"inconclusive [activator, single point]"
Cc1ccc(C2=NOC(=O)/C2=C\c2ccccc2)cc1,,"inconclusive [activator, partial curve, poor fit]"
CCn1c(COc2ccc(Cl)cc2)nnc1SCc1nc2ccccc2[nH]1,,"inconclusive [activator, single point]"
O=C(O)c1cc([N+](=O)[O-])c(Nc2cccc3ccccc23)c([N+](=O)[O-])c1,,"inconclusive [activator, full curve, poor fit]"
CCc1ccccc1NC(=O)CN1CCN(C(=O)CNC(=O)c2ccc(-c3ccccc3)cc2)CC1,,"inconclusive [activator, partial curve, poor fit]"
CC(NC(=S)NC(=O)c1ccccc1)c1ccccc1 (stereo not given),,"inconclusive [activator, partial curve]"
CCc1ccc(NC(=O)CSC2=Nc3ccccc3C3=NC(CCC(=O)NCc4ccccc4)C(=O)N23)cc1 (stereo not given),inactive: -6.26%,
O/N=C(\COc1ccccc1O)c1ccccc1,,"inconclusive [activator, partial curve, poor fit]"
CCOC(=O)[C@H]1[C@H]2COc3ccccc3[C@@H]2N2C(=O)c3cc(Cl)ccc3NC(=O)[C@@]12C,,"inconclusive [activator, partial curve]"
Cc1ccc(NC2Sc3ccccc3NC2=O)cc1Cl (stereo not given),,"inconclusive [activator, partial curve]"
O=C(Cn1c(SCc2ccccc2F)nc2ccncc21)Nc1ccccc1C(F)(F)F,inactive: -19%,
Cc1cccc(NC(=S)N/N=C2\CC(C)(C)Oc3ccc(O)cc32)c1,,"inconclusive [activator, partial curve, poor fit]"
N#CCCCC#Cc1ccc2c(c1)COc1c3ccccc3nn1-2,inactive: -24.3%,
O=C(NCCN1CCNC1=O)C1CCC(=O)N(Cc2cccc(C(F)(F)F)c2)C1 (stereo not given),inactive: 12.8%,
O=C(/C=C/c1ccccc1)NC(=S)NNC(=O)c1cccnc1,,"inconclusive [activator, partial curve, poor fit]"
Cc1ccc(C(=O)NC(=S)NCc2ccccc2)cc1Br,,"inconclusive [activator, partial curve]"
Cc1ccc(CNC(=S)NC2CCC(C(C)(C)C)CC2)cc1 (stereo not given),,"inconclusive [activator, partial curve, poor fit]"
COc1ccccc1N1CCN(C(=O)c2cc(-c3ccc4c(c3)OCO4)on2)CC1,inactive: -1.56%,
O=C(CN1N=C(c2ccc(Cl)cc2)CCC1=O)NCCc1ccc(Cl)cc1,,"inconclusive [activator, single point]"

# From PubChem BioAssay AID1347071 (National Center for Advancing Translational Sciences (NCATS), 2019)
